Measured values as given in the supplement of paper PMC10126150.
Values marked as one replicate rest on one cluster of the flow cell; about a third of the high ones do not repeat.

Test system: ATP
Experiment: switch fluorescence ratio, 500 uM ATP over buffer (Cy3 cluster intensity, sum of 5 cycles each) (fold (ratio)); higher = stronger signal-on switching upon ATP binding; sequences stand for … in TCGTCGGCAGCGTCAGATGTGTATAAGAGACAGTTTTTTTTTTTTTTTTTTTTTTTTT…TC
Conditions: aptamer strand: ATP DNA aptamer (quencher-CACCTGGGGGAGTATTGCGGAGGAAGG + anchor), 100 nM annealed; ATP concentration: 500 uM; one replicate
How it was run: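 Cy3-labelled switching-strand clusters on a modified Illumina MiSeq flow-cell were annealed to 100 nM quencher-labelled ATP aptamer, imaged in selection buffer, then imaged after 15 min with 500 uM ATP at 22 °C. Five buffer/ATP cycles ran, with NaOH stripping and re-annealing between them. The fluorescence ratio is summed target-cycle over summed buffer-cycle Cy3 intensity per cluster, averaged per switch-domain sequence. Clusters outside 100-1000 RFU were excluded.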
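Note: ATP exposure 15 min at 22 °C before imaging.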

Row | Sequence | switch fluorescence ratio
1 | GTAGATGCGG | 0.996
2 | ACAGTAGCGG | 1.02
3 | AAAATGTGC | 0.967
4 | ACGCCCGTGC | 1.1
5 | TTGTGGAACT | 0.985
6 | TTTCGTCCAT | 1.28
7 | CGCTCTCATA | 1.05
8 | GGCCCGACTC | 1.05
9 | GGTAGACGAG | 1.03
10 | GATGAGCCTG | 0.959
11 | CAAGTGAGCC | 1.02
12 | GCAGTGGCAA | 1.01
13 | CACTGGTGAC | 1.03
14 | CTGATTTGGA | 0.958
15 | ATACGCCACG | 1.49
16 | GTCGTGCTGG | 0.988
17 | AGGCATCCTA | 0.986
18 | GAAAGTCATT | 0.979
19 | ACGTTGGTTG | 0.997
20 | GCGCAAAGCC | 1.03
21 | ATACTTATAC | 1.13
22 | GAACCATGCA | 1.01
23 | CTGTATTGGC | 1.04

Row | Sequence | switch fluorescence ratio
24 | AGAATAGCGA | 1
25 | GGAAGTGACC | 0.966
26 | GGGCGATCGC | 0.955
27 | CACATACGTC | 1.47
28 | AGACTCCGTG | 0.936
29 | CATGGAACC | 1.01
30 | TCGTTTAGGC | 0.973
31 | CAATCTTGCT | 1.01
32 | TTAGGGGTT | 0.99
33 | ACTCTTCCGA | 2.25
34 | TATGTGTGAA | 0.944
35 | TTGGAGAAGC | 0.952
36 | CATCTCTCGT | 1.05
37 | GACATGCAAG | 0.96
38 | TCCCTTTAGC | 1.02
39 | CGTTCTATG | 0.972
40 | ATCCTTTGGC | 1.03
41 | CATCAAGTGG | 0.988
42 | AGTTTAGTAC | 1.04
43 | GAAGATTTGT | 1.02
44 | ACGACCCGTC | 1.02
45 | TGTTAGCATC | 1.06
46 | TGAGGCGAAG | 1.04

Row | Sequence | switch fluorescence ratio
47 | CTATCCATTT | 0.971
48 | GTGGTTGC | 1.09
49 | GTACTCCAGG | 2.15
50 | TTCGGAAGA | 1.03
51 | GAGGTCCGCT | 1.08
52 | GTTGGTTGAC | 1.04
53 | AGACACATTC | 1.05
54 | GAGGTTATCG | 1.02
55 | GCTGAACTAA | 0.978
56 | CTGACATAA | 1.19
57 | TTAGGGGCCT | 0.984
58 | CGTTTTGGA | 1.03
59 | TACGGGCATG | 1.02
60 | TTTCTGCGCA | 1.22
61 | CCTGGCCATT | 1.06
62 | AACCATCCTT | 1.12
63 | GTCAGGACGG | 1.02
64 | CCTGAGGTAA | 1.08
65 | ATGCCGCACC | 1.32
66 | TGCTTGAGTG | 1
67 | GGCTACCGGA | 0.973
68 | ACGCAGGGCA | 0.999
69 | GTATGTGGA | 0.968

Row | Sequence | switch fluorescence ratio
70 | CGTCGGTGCG | 0.959
71 | CGTCTACTTA | 1.03
72 | TGGTCCATTG | 0.994
73 | CATTGGCTGT | 0.983
74 | GGACAAGATT | 1
75 | TGAAAACTGT | 0.974
76 | TATCTGCTA | 1.09
77 | AGCCGACGTG | 1.02
78 | TTAAGGAGTT | 1.03
79 | GACTGTGAAT | 1.01
80 | CGTAGGGCAT | 1.02
81 | GGCTATGACT | 1
82 | GGGCCGGGA | 0.994
83 | CCGAACTAAC | 2.69
84 | ATGGTTCTCA | 0.976
85 | ACTTGCAGAT | 1.05
86 | CCAGCGAAGT | 1.08
87 | AGACGCATTA | 2.33
88 | TGAATGCTGC | 0.993
89 | CTTATAAGCG | 0.982
90 | ATAGACGCAC | 1.78
91 | GACCGAAGGA | 1
92 | TAGCGGGACA | 1

Row | Sequence | switch fluorescence ratio
93 | AAATCTGTAT | 1.01
94 | CGAAGGGTG | 1.02
95 | AGGGCGCTCT | 0.95
96 | TTGGGAGCG | 0.996
97 | GGATACAAAA | 1.02
98 | GTCCGACATC | 1.4
99 | GTGTATTCAC | 1.03
100 | GGATAGTGGA | 1.02
101 | CAATGGGCCG | 1.04
102 | ATGTGGGATC | 1.02
103 | GCACGGCACG | 1.04
104 | ACTCATTTCG | 1.04
105 | GTTCAAGTGT | 0.998
106 | TTAAGATACG | 1.03
107 | CTCCTGGTTG | 1.08
108 | GTTAGGGAAT | 1.04
109 | TGAACCGAGA | 1.03
110 | CATCGTTGTT | 0.97
111 | TATTAGGCTA | 1.03
112 | AAACGGCCGC | 1.06
113 | GGGGCTGGA | 0.918
114 | AGTTAATGCA | 0.962
115 | ATTGATAATT | 0.981

Row | Sequence | switch fluorescence ratio
116 | CAAACCCTAA | 1.05
117 | GCGTTGTG | 1.03
118 | ACTTCTGAAT | 1
119 | GCACAAAGGG | 1.01
120 | CGCGAGCGTC | 1.02
121 | TCACCCTTTG | 1.04
122 | ACAAACATGG | 1.09
123 | TAAAGCTCTG | 0.956
124 | ACCCTTAGTG | 1.1
125 | TAAACTGGAG | 0.961
126 | ACCTCACGGT | 1.44
127 | CAGCCATTGC | 1.05
128 | GGTGCTTCGT | 0.987
129 | AATACTGGCT | 1.09
130 | GCATTCCCGG | 1.19
131 | TGCTATCAGG | 1.06
132 | GAAATTATT | 1.01
133 | AATACTACAT | 1.01
134 | GGACAGGGA | 1.06
135 | AGTCGCTGGT | 0.993
136 | CTAACGATT | 0.99
137 | GGCTTCATAC | 1.36
138 | GGGTATTGAC | 1.01

Row | Sequence | switch fluorescence ratio
139 | ACAAACGTA | 1.51
140 | AGGTCTTAAG | 0.99
141 | TGCGAGTAGA | 1
142 | TGGGGAAATC | 2.91
143 | CAACAGGATT | 1
144 | AAATTAAAG | 0.984
145 | ATCATAGATG | 1.02
146 | GTCGGGCTAG | 0.985
147 | ACTGAGGGTC | 1
148 | GCCACATGA | 1
149 | GTTCTAGTCC | 0.948
150 | CTCTTTGTCC | 1.03
151 | GCGCTATGCG | 1.06
152 | CAACGTCCTT | 1.01
153 | TGTCAACTCG | 1
154 | CACGGACGTA | 1.14
155 | GTCACCCAAC | 1.13
156 | ATGCCCTAG | 0.984
157 | AATGCTATGT | 1.02
158 | GGGCGGAAGC | 0.988
